Columns and labels:
[1] = tested on: Colletotrichum orbiculare; conditions: 250 ppm spray (2.5 ml/pot), preventive; 6-10 days after inoculation; control value class
[2] = tested on: Magnaporthe grisea; format: in vivo; conditions: 250 ppm spray, preventive; control value class
[3] = tested on: Phytophthora infestans; format: in vivo; conditions: 250 ppm spray (2.5 ml/pot), preventive; 5-10 days after inoculation; control value class

CCn1c(-c2c(F)cccc2F)c(-c2cccc(C#N)c2)ccc1=O [Compound 341]
Test H control value (anthracnose on cucumber) [1]: L (L shows 50% or less of control values) | Test A control value (blast on rice) [2]: H (H shows more than 50% of control values) | Test F control value (late blight on tomato) [3]: L (L shows 50% or less of control values)

CCN1C(=O)CCC(c2cc(OC)cc(OC)c2Cl)=C1c1c(F)cc(F)cc1F [Compound 342]
Test H control value (anthracnose on cucumber) [1]: H (H shows more than 50% of control values) | Test A control value (blast on rice) [2]: H (H shows more than 50% of control values) | Test F control value (late blight on tomato) [3]: L (L shows 50% or less of control values)

COc1cc(OC)c(Cl)c(-c2ccc(=O)n(CC(F)F)c2-c2c(F)cc(F)cc2F)c1 [Compound 343]
Test H control value (anthracnose on cucumber) [1]: H (H shows more than 50% of control values) | Test A control value (blast on rice) [2]: H (H shows more than 50% of control values) | Test F control value (late blight on tomato) [3]: H (H shows more than 50% of control values)

CCc1ccccc1-c1ccc(=O)n(C)c1-c1c(F)cccc1F [Compound 344]
Test H control value (anthracnose on cucumber) [1]: L (L shows 50% or less of control values) | Test A control value (blast on rice) [2]: H (H shows more than 50% of control values) | Test F control value (late blight on tomato) [3]: L (L shows 50% or less of control values)

O=c1ccc(-c2ccc(Cl)cc2Cl)c(-c2c(F)cccc2F)n1CC(F)F [Compound 345]
Test H control value (anthracnose on cucumber) [1]: H (H shows more than 50% of control values) | Test A control value (blast on rice) [2]: H (H shows more than 50% of control values) | Test F control value (late blight on tomato) [3]: H (H shows more than 50% of control values)

Cn1c(-c2c(F)cccc2F)c(-c2ccc(Cl)cc2Cl)ccc1=O [Compound 346]
Test H control value (anthracnose on cucumber) [1]: L (L shows 50% or less of control values) | Test A control value (blast on rice) [2]: H (H shows more than 50% of control values) | Test F control value (late blight on tomato) [3]: L (L shows 50% or less of control values)

O=c1c(Cl)cc(-c2ccc(Cl)cc2Cl)c(-c2c(F)cccc2F)n1CC(F)F [Compound 347]
Test H control value (anthracnose on cucumber) [1]: H (H shows more than 50% of control values) | Test A control value (blast on rice) [2]: H (H shows more than 50% of control values) | Test F control value (late blight on tomato) [3]: L (L shows 50% or less of control values)

Cn1c(-c2c(F)cccc2F)c(-c2ccc(Cl)cc2Cl)cc(Cl)c1=O [Compound 348]
Test H control value (anthracnose on cucumber) [1]: L (L shows 50% or less of control values) | Test A control value (blast on rice) [2]: H (H shows more than 50% of control values) | Test F control value (late blight on tomato) [3]: L (L shows 50% or less of control values)

CCn1c(-c2c(F)cccc2F)c(-c2cccc(Cl)c2Cl)ccc1=O [Compound 349]
Test H control value (anthracnose on cucumber) [1]: H (H shows more than 50% of control values) | Test A control value (blast on rice) [2]: H (H shows more than 50% of control values) | Test F control value (late blight on tomato) [3]: H (H shows more than 50% of control values)

CCn1c(-c2c(F)cccc2F)c(-c2cccc(Cl)c2Cl)cc(Cl)c1=O [Compound 350]
Test H control value (anthracnose on cucumber) [1]: L (L shows 50% or less of control values) | Test A control value (blast on rice) [2]: H (H shows more than 50% of control values) | Test F control value (late blight on tomato) [3]: L (L shows 50% or less of control values)

C#Cc1cc(-c2cc(OC)ccc2Cl)c(-c2c(F)cccc2F)n(CC)c1=O [Compound 351]
Test H control value (anthracnose on cucumber) [1]: H (H shows more than 50% of control values) | Test A control value (blast on rice) [2]: H (H shows more than 50% of control values) | Test F control value (late blight on tomato) [3]: L (L shows 50% or less of control values)

CCn1c(-c2c(F)cccc2F)c(-c2cc(OC)ccc2Cl)cc(C2CC2)c1=O [Compound 352]
Test H control value (anthracnose on cucumber) [1]: L (L shows 50% or less of control values) | Test A control value (blast on rice) [2]: H (H shows more than 50% of control values) | Test F control value (late blight on tomato) [3]: L (L shows 50% or less of control values)

CCn1c(-c2c(F)cccc2F)c(-c2cccc(C#N)c2)cc(Cl)c1=O [Compound 353]
Test H control value (anthracnose on cucumber) [1]: L (L shows 50% or less of control values) | Test A control value (blast on rice) [2]: H (H shows more than 50% of control values) | Test F control value (late blight on tomato) [3]: L (L shows 50% or less of control values)

CCn1c(-c2c(F)cc(F)cc2F)c(-c2cc(Cl)ccc2Cl)ccc1=O [Compound 354]
Test H control value (anthracnose on cucumber) [1]: H (H shows more than 50% of control values) | Test A control value (blast on rice) [2]: H (H shows more than 50% of control values) | Test F control value (late blight on tomato) [3]: L (L shows 50% or less of control values)

CCn1c(-c2c(F)cc(F)cc2F)c(-c2cc(Cl)ccc2Cl)cc(Cl)c1=O [Compound 355]
Test H control value (anthracnose on cucumber) [1]: H (H shows more than 50% of control values) | Test A control value (blast on rice) [2]: H (H shows more than 50% of control values) | Test F control value (late blight on tomato) [3]: L (L shows 50% or less of control values)

CCN1C(=O)CCC(c2cc(F)ccc2Cl)=C1c1c(F)cccc1F [Compound 356]
Test H control value (anthracnose on cucumber) [1]: H (H shows more than 50% of control values) | Test A control value (blast on rice) [2]: H (H shows more than 50% of control values) | Test F control value (late blight on tomato) [3]: H (H shows more than 50% of control values)

CN1C(=O)CCC(c2cc(F)ccc2Cl)=C1c1c(F)cccc1F [Compound 357]
Test H control value (anthracnose on cucumber) [1]: H (H shows more than 50% of control values) | Test A control value (blast on rice) [2]: H (H shows more than 50% of control values) | Test F control value (late blight on tomato) [3]: H (H shows more than 50% of control values)

CCn1c(-c2c(F)cccc2F)c(-c2cc(F)ccc2Cl)ccc1=O [Compound 358]
Test H control value (anthracnose on cucumber) [1]: H (H shows more than 50% of control values) | Test A control value (blast on rice) [2]: H (H shows more than 50% of control values) | Test F control value (late blight on tomato) [3]: H (H shows more than 50% of control values)

Cn1c(-c2c(F)cccc2F)c(-c2cc(F)ccc2Cl)ccc1=O [Compound 359]
Test H control value (anthracnose on cucumber) [1]: H (H shows more than 50% of control values) | Test A control value (blast on rice) [2]: H (H shows more than 50% of control values) | Test F control value (late blight on tomato) [3]: H (H shows more than 50% of control values)

CCn1c(-c2c(F)cccc2F)c(-c2cc(F)ccc2Cl)cc(Cl)c1=O [Compound 360]
Test H control value (anthracnose on cucumber) [1]: H (H shows more than 50% of control values) | Test A control value (blast on rice) [2]: H (H shows more than 50% of control values) | Test F control value (late blight on tomato) [3]: L (L shows 50% or less of control values)

CCn1c(-c2c(F)cccc2F)c(-c2cc(F)ccc2Cl)cc(Br)c1=O [Compound 361]
Test H control value (anthracnose on cucumber) [1]: L (L shows 50% or less of control values) | Test A control value (blast on rice) [2]: H (H shows more than 50% of control values) | Test F control value (late blight on tomato) [3]: L (L shows 50% or less of control values)

Cn1c(-c2c(F)cccc2F)c(-c2cc(F)ccc2Cl)cc(Cl)c1=O [Compound 362]
Test H control value (anthracnose on cucumber) [1]: H (H shows more than 50% of control values) | Test A control value (blast on rice) [2]: H (H shows more than 50% of control values) | Test F control value (late blight on tomato) [3]: L (L shows 50% or less of control values)

Cn1c(-c2c(F)cccc2F)c(-c2cc(F)ccc2Cl)cc(Br)c1=O [Compound 363]
Test H control value (anthracnose on cucumber) [1]: H (H shows more than 50% of control values) | Test A control value (blast on rice) [2]: H (H shows more than 50% of control values) | Test F control value (late blight on tomato) [3]: L (L shows 50% or less of control values)

Cn1c(-c2c(F)cccc2F)c(-c2cccc(Cl)c2Cl)ccc1=O [Compound 364]
Test H control value (anthracnose on cucumber) [1]: H (H shows more than 50% of control values) | Test A control value (blast on rice) [2]: H (H shows more than 50% of control values) | Test F control value (late blight on tomato) [3]: L (L shows 50% or less of control values)

Cn1c(-c2c(F)cccc2F)c(-c2cccc(Cl)c2Cl)cc(Cl)c1=O [Compound 365]
Test H control value (anthracnose on cucumber) [1]: H (H shows more than 50% of control values) | Test A control value (blast on rice) [2]: H (H shows more than 50% of control values) | Test F control value (late blight on tomato) [3]: L (L shows 50% or less of control values)

O=c1ccc(-c2cccc(Cl)c2Cl)c(-c2c(F)cccc2F)n1CC(F)F [Compound 366]
Test H control value (anthracnose on cucumber) [1]: H (H shows more than 50% of control values) | Test A control value (blast on rice) [2]: H (H shows more than 50% of control values) | Test F control value (late blight on tomato) [3]: L (L shows 50% or less of control values)

O=c1c(Cl)cc(-c2cccc(Cl)c2Cl)c(-c2c(F)cccc2F)n1CC(F)F [Compound 367]
Test H control value (anthracnose on cucumber) [1]: L (L shows 50% or less of control values) | Test A control value (blast on rice) [2]: H (H shows more than 50% of control values) | Test F control value (late blight on tomato) [3]: L (L shows 50% or less of control values)

CCn1c(-c2c(F)cccc2F)c(-c2c(F)c(F)c(F)c(F)c2F)ccc1=O [Compound 368]
Test H control value (anthracnose on cucumber) [1]: H (H shows more than 50% of control values) | Test A control value (blast on rice) [2]: H (H shows more than 50% of control values) | Test F control value (late blight on tomato) [3]: L (L shows 50% or less of control values)

CCc1cc(-c2cc(OC)ccc2Cl)c(-c2c(F)cccc2F)n(CC)c1=O [Compound 369]
Test H control value (anthracnose on cucumber) [1]: H (H shows more than 50% of control values) | Test A control value (blast on rice) [2]: H (H shows more than 50% of control values) | Test F control value (late blight on tomato) [3]: L (L shows 50% or less of control values)

CCCc1cc(-c2cc(OC)ccc2Cl)c(-c2c(F)cccc2F)n(CC)c1=O [Compound 370]
Test H control value (anthracnose on cucumber) [1]: L (L shows 50% or less of control values) | Test A control value (blast on rice) [2]: H (H shows more than 50% of control values) | Test F control value (late blight on tomato) [3]: L (L shows 50% or less of control values)

CCn1c(-c2c(F)cccc2F)c(-c2cc(OC)ccc2Cl)cc(OC)c1=O [Compound 371]
Test H control value (anthracnose on cucumber) [1]: H (H shows more than 50% of control values) | Test A control value (blast on rice) [2]: H (H shows more than 50% of control values) | Test F control value (late blight on tomato) [3]: L (L shows 50% or less of control values)
